Variants at the background level are over-represented here.
B1: TPR 5TU (parent)
chain: GGAUCUUCUCGAUCUAACAAAAAAGACAAAUCUGCCACAAAGCUUGAGAGCAUCUUCGGAUGCAGAGGCGGCAGCCUUCGGUGGCGCGAUAGCGCCAACGUUCUCAACUAUGACACGCAAAACGCGUGCUCCGUUGAAUGGAGUUUAUCAUG

Variants of: B1
Test: polymerase ribozyme fitness, log enrichment relative to wild type (log ratio); higher = more active; in vitro selection for triplet polymerase activity
Summary of the method: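 Libraries of mutants in each subunit of a heterodimeric triplet polymerase ribozyme were generated by PCR and transcribed. In triplicate, each went through one in vitro selection round: annealing with biotinylated primer, partner subunit and triplets; frozen incubation at −7 °C; gel excision of extended constructs; streptavidin-bead capture; RT-PCR. Fitness, taken from Illumina sequencing of input and output libraries, is the logarithm of a genotype's enrichment over wild-type enrichment, averaged across replicates with inverse-variance weights. The logarithm is base 2, and genotypes needed ≥10 input reads and ≥1 read per output to be kept.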

| Variant | polymerase ribozyme fitness (log ratio) |
| --- | --- |
| GGAUCUUCUCAAUCUAACAAAAAAGACAAAUCUGCCACAAAGCUUGAGAGCAUCUUCGGAUGCAGAGGCGGCAGCCUUCGGUGGCGCGAUAGCGCCAACGUUCUCAACUAUGACACGCAAAACGUGUGCUCCGUUGAAGGGAGUUUAUCAUG | -2.67 |
| GGAUCUUCUCAAUCUAACAAAAAACACAAAUCUGGCACAAAGCUUGAGAGCAUCUUCGGAUGCAGAGGCGGCAGGCUUUGGUGGCGCGAUAGGGCCAACGUUCUCAACUAUGACACGCAAAACGCGUGCUCCGUUGAAUGGAGUUUAUCAUG | ≤ -4.2 |
| GGAUCUUCUCAAUCUAACAAAAAAGACAAAUCUACCACAAAGCUUGAGAGCAUCUUCGGAUGCAGAGGCGGCAGCCUUCGGUGGCGCGAUAGUGCCGACGUUCUCAACUAUGACACGCAAAACGCGUGCUCCGUUGAAUGGAGUUUAUCAUG | ≤ -4.2 |
| GGAUCUUCUCAAUCUAACAAAAAAGACAAAUCUACCACAAAACUUGAGAGCAUCGUCGGAUGCAGAGGCGGCAGCCUUCGGUGGCGCGAUAGGGCCAACGUUCUCAACUAUGACACGCAAAACGCGUGCUCCGUUGAAUGGAGUUUAUCAUG | ≤ -4.2 |
| GGAUCUUCUCAAUCUAACAAAAAAGACAAAUCUCCCACAAAGCUUGAGAGCAUCUAUGGAUGCAGAGGCGGCAGCCUUCGGUGGCGCGAUAGCGCCAAGGUUCUCAACUAUGACACGCAAAACGCGUGCUCCGUUGAAUGGCGUUUAUCAUG | ≤ -4.2 |
| GGAUCUUCUCAAUCUAACAAAAAAGACAAAUCUUCCACAAAGCUUGAGAGCAUCUUCGGAUGCAGAGGCUGCAGCCUUCGGUGGCGCGAUAGGCCCAACGUUCUCAACUAUGACACGCAAAACGCGUGCUCCGUUGAAUGGAGUUUAUCAUG | ≤ -4.2 |
| GGAUCUUCUCAAUCUAACAAAAAAGACAAAUCUGCCACAAAUCUUGAGAGCAUCUUGGGCUGCAGAGGCGGCAGCCUUCGGUGGCGCGAUAGCGCCAACGUUCUCAACUAUGACACGCAAAACGCGUGCUCCGUCGAAUGGAGUUUAUCAUG | ≤ -4.2 |
| GGAUCUUCUCAAUCUAACAAAAAAGACAAAUCUGCCACAAAGCUUUAGAGCAUCUUCGGAUGCAGAGGCGGCAGCCUUCGGUGGCGCGAUAACGCCAACGUUCUCAACUAUGACACGUAAAACGCGUGCUCCGUUGAAUGGAGUUUAUCAUG | ≤ -4.2 |
| GGAUCUUCUCAAUCUAACAAAAAAGACAAAUCUGCCACAAAGCUUGAGAACAUCUUCGGAUGCACAGGCGGCAGCCAUCGGUGGCGUGAUAGCGCCAACGUUCUCAACUAUGACACGCAAAACGCGUGCUCCGUUGAUUGGAGUUUAUUAGG | ≤ -4.2 |
| GGAUCUUCUCAAUCUAACAAAAAAGACAAAUCUGCCACAAAGCUUGAGAUCAUCUUCGGAUGCAGAGGCGGCAGCUUUCGGUGGCGCGAUAGCGCCAACGUUCUCAACUAUGACACGUAAAACGCGUGCUCCGUUGAAAGGAGUUUAUCAUG | ≤ -4.2 |
| GGAUCUUCUCAAUCUAACAAAAAAGACAAAUCUGCCACAAAGCUUGAGAGCAUCUUCUGAUGCAGAGGCGGCAGCCUUCGGUGGCGCGAUAGCGCUAACGUUCUCAACUAUGACACGCAAAACGCGUGCUCCGUUGAAUGGAGUUUAUCAUG | -1.58 |
| GGAUCUUCUCAAUCUAACAAAAAAGACAAAUCUGCCACAAAGCUUGAGAGCAUCUUCGGAUCCAGAGGCGGCAGCCUUCGGUGGCGCGAUAGGGCCACCGUUCUCAACUAUGACACGCAAAACGCGUGCUCCGUUGAAUGGAGUUUAUCAUG | ≤ -4.2 |
| GGAUCUUCUCAAUCUAACAAAAAAGACAAAUCUGCCACAAAGCUUGAGAGCAUCUUCGGAUCCAGAGACGGCAGCCUUCGGUCGCGCGAUAGCGCCAACGUUCUCAACUAUGACACGCAAAACGCAUGCUCCGUUGAAUGGAGUUUGUCAUG | ≤ -4.2 |
| GGAUCUUCUCAAUCUAACAAAAAAGACAAAUCUGCCACAAAGCUUGAGAGCAUCUUCGGAUGCAGAGGCGGCAGCCUUCGGUGAUGCAAUAGCGCCAAAGUUCUCAACUAUGACACGCAAAACGCGUGCUGCGUUGAACGGAGUUUAUCAUG | ≤ -4.2 |
| GGAUCUUCUCAAUCUAACAAAAAAGACAAAUCUGCCACAAAGCUUGAGAGCAUCUUCGGAUGCAGAGGCGGCAGCCUUCGGUGGCACGAUAGCGCCAACGUUCUCAACUAUGACACGCAAAACGCGUGCUCCGUUGAAUGGAGUUUAUCAUG | -2.24 |
| GGAUCUUCUCAACCUAACAAAAAAGACAAAUCUGCUACAAAGCUUGAGUGCAUCUUCGGUUGCAGAGGCGGCAGCCUUCGGUGGCGCGAUAGCGCCAACGUUCUCAACUAUGACACGCAAAACGCGUGCUCCGUUGAAUGGAGUUUAUCAUG | -4.19 |
| GGAUCUUCUCAAGCUACGAAAAAAGACAUUUCUGCCACAAAGCUUGAGCGCAUCUUCGGAUGCAGAGGCGGCAGCUUUCGGUGGCGGGAUAGCGCCAACGUUCUCAACUAUGACACGCAAAACGCGUGCUCCGUUGAAUGGAGUUUAUCAUG | ≤ -4.2 |
| GGAUCUUCUCAAGCUAGCAAAAAACACAAAUCUGCCACAAAGCUUGAGAGCAUCUUCGGAUGCAGAGGCGGCAGACUUCCGUGGUGCGAUAGCGCCAACGUUCUCAACUACGAAACGCAAAACGCGUGCUCCGUUGAAUAGAGUUUAUCAUG | ≤ -4.2 |
| GGAUCUUCUCAAUCAAACUAAAAAGACAAAUCUGCCACAAAGCUUCAGAGCAUCUUAGGAUGCAGAGGCGGCUGCCUUCGCUGGCGCGAUAGCGUCAACGUUUUCAACUAUGACACGCAAAACGCGUGCUCCGUUGAAUGGAGUUUAUCAUG | ≤ -4.2 |

| Variant | polymerase ribozyme fitness (log ratio) |
| --- | --- |
| GGAUCUUCUCAAUCAAACAAAAAAGACAAAUCUGCCACAAAGCUUGAAAGCAUCUUCGGAUGCAGAGGCGGCAGCCUUGGGUGGCGCGAUAGCGCCAACGUUCUCAACUAUGACACGCAAAACGCGUGCUCCGUUGAAUGGAGGUUAUCAUG | ≤ -4.2 |
| GGAUCUUCUCAAUCGACCAUAAAAGACAAAUCCGCCACAAAGCUUGAGAGCAUCUUCGGAUGCGGAGGCGGCAGCCUUCGGUGGCGCGAUAGGGCCAACGUUCUCAACUGUGACACGCAAAACGCGUGCUCCGUUGAAUGGAGUUUUUCAUG | ≤ -4.2 |
| GGAUCUUCUCAAUCGAACAAAAAAGACAAAUCUGCCACAAAGCUUAGGAGCAUCUUCGGGUGCAGAGGCGGCAGCCUUCGGUGGCGCGAUACCGCAAACGUUCUCAACUAUGACACGCAAAACGCGUGCUCCGUUGAAUGGAGUUUAUCAUG | ≤ -4.2 |
| GGAUCUUCUCAAUCUAACAAAAAAGACAAAUCUGCCACAAAGCAAGAGAGCAUCUUAGGAUGAAGAGGCAGCAGCCUUCGGUGGCGCGAUAGAGCCAACGUUAUCACCUAUGACACGCAAAACGCGUGCUCCGUUGAAUGGAGUUUAUCAUG | ≤ -4.2 |
| GGAUCUUCUCAAUCUAACAAAAAAGACAAAUCUGCCACAAAGCAUGAGAGCAUCUACGGAUGCCGAGGCGGCAGCCUUCGGUGGCGCGAUUGCGCCAACGUUCUUAAGUCUGACACGCAAAACGCGUGCUCCGUGGAAUGGAGUUUAUCAUG | ≤ -4.2 |
| GGAUCUUCUCAAUCUAACAAAAAAGACAAAUCUGCCACAAAGCCUGAGAGCAUCUUCGGAUGCAGAGUCGGCAGCCGUCGGUGGCGUGAUAGCGCCAACGUUCUCAACUAUGACACGCAAAACGCGUGCUCCGUUGAAUGGAGUUUAUCAUG | ≤ -4.2 |
| GGAUCUUCUCAAUCUAACAAAAAAGACAAAUCUGCCACAAAGCGUGAGAGCAUCUUCGGAUGCAGAGGCGGCAGCCUUCCGUGGCGCGAUAGAUCCAACGUUCUCAACUAUGACACGCAAAACGCGUGCUCCGUUGAAUGGAGUUUAUCAUG | ≤ -4.2 |
| GGAUCUUCUCAAUCUAACAAAAAAGACAAAUCUGCCACAAAGCUUGAGAGCAUCAUCGGAUGCAGAGGCGGCAGCCUUCGGUGGCGCGAUAGGGCCAACGUUCUCAACUAUGACACGCAAAACGCGUGCUCCGUUGAAUGGAGUUUAUCAUG | ≤ -4.2 |
| GGAUCUUCUCAAUCUAACAAAAAAGACAAAUCUGCCACAAAGCUUGAGAGCAUCUACGGAUGCAGAGGCGGCAGCUUUCGGUGGCGCGAUAGCGCCAACGUUCUCAACUACGACACGCAAAACGCGUGCUCCGUUGAAUGGAGUUUAACAUG | ≤ -4.2 |
| GGAUCUUCUCAAUCUAACAAAAAAGACAAAUCUGCCACAAAGCUUGAGAGCAUCUUCGGAAGCAGAGGCGGCAGCCUUCGGUGGAGCGAUAGCGCCAACGUUCUCAACUAUGACACGCAAACCGCGUGCUCCGUUGAAUGGAGUUUAUCCUG | ≤ -4.2 |
| GGAUCUUCUCAAUCUAACAAAAAAGACAAAUCUGCCACAAAGCUUGAGAGCAUCUUCGGAAGCAGAGGCGGCAGCCUUCGGUUGCGCGAUAGAGCCAACGUUCUCAACUAUGACACGCAAAACGCGUGCUCCGUUGAAUGGAGGUUAUCAUG | ≤ -4.2 |
| GGAUCUUCUCAAUCUAACAAAAAAGACAAAUCUGCCACAAAGCUUGAGAGCAUCUUCGGAUGCAGAGGCGGCAGCCUUCGGGGGUGCGAUAGCGACAACGUUCUCAACUUUGACACGCAAAACGCGUGCUCCGUUGAAUGGAGUUUAUCAUG | ≤ -4.2 |
| GGAUCUUCUCCGUCUAACACAAAAGACAAAUCUGCCACAGAGCUUGAGAGCAUCUUCGGAUGCAGAGGCGGCAGCCUUCGGUGGCGCGAUAGUGCCAACGUUCUCAACUAUGACACGCAAAACGCGUGCUCCGUCGAAUGGAGUUUAUCAUG | ≤ -4.2 |
| GGAUCUUCUCCGUCUAACAAAAAAGACAAAUCUGCCACAAUGCUUGAGAGCAUCUUCGGAUGCAGAGGCGGCAGCAUUCGGUAGCGCGAUAGCGCCAACGUUGUCAACUAUGAAACGCAAAACGCGUGCUCCGUUGAAUGGAGUUUAUCAUG | ≤ -4.2 |
| GGAUCUUCUCCGUCUAACAAAAAAGACAAAUCUGCCACAAAGCUUGAGAGCAUCAUCGGAUGCAGAGGCGGCAGCCUUCGGUUGCGCGAUAGCGCCAACGUUCUCUACUAUGACACGCAAAACGCGUGCUCCGUUGAAUGGAGUUUAUCAUG | ≤ -4.2 |
| GGAUCUUCUCCGUCUAACAAAAAAGACAAAUCUGCCACAAAGCUUGAGAGCAUCUUCGGAUGCAGAGGCGGCAGCCUUCGGGGACGCGAUAGCGCCAACGUUCUCAACUAUGACACGCAAAACGCGUGCUACGUUGAAUGGAGUUUAUCAUG | ≤ -4.2 |
| GGAUCUUCUCCAUCUUACAAAGAUGACAAAUCUGCCACAAAGCUUGAGAGCAUCUUCGGAUGCAGAGGCGGCAGCCUUCGGUGGCGCGAUAUCGCCAACGUUCUCAACUAUGACGCGCAAAACGCGUGCUCCGUUGAAUGGAGUUCAUCAUG | ≤ -4.2 |
| GGAUCUUCUCCAUCUACCAAAAAAGUCAAAUCUGCCACAAAGCUUGAGAGCAUCUUCGGAUGCAGAGGCGGCAGCCUUCGGUGGCGAGAUAGCGCCAACGUUCUCAACUAUGACACGCAAAACGGGUGCUCCGUUGAAUGGAGUUUAUCAUG | ≤ -4.2 |
| GGAUCUUCUCCAUCUACCAAAAAAGACAAAUCUGCAACAAAGCUUGAGAGCAUCUUCAGAUGCAGAGGCGGCAGCCUUCGGUGGCGCGAUAGCGCCAACGUUCUCAACUAUGACACGCAAAACGCGUGCUCCGUUGAAUGGAGUUUAUCAUG | ≤ -4.2 |
